Assay results from the RNAGym collection of RNA variant scans (doi:10.7554/elife.90254).
The source gives no read counts; variants with many changes may rest on few reads.

B1: OR4K15 (parent)
chain: GUUAACGGUCAUAGGCCAUGGAAACUAGGAGCACCAUUUCGCUGCCAGUGAAGAAAUGAACAAAGAAAAUCUGGGCCAGGCAGGCAUCAAAAGAAAUAGUCUUGCGCUCAACCAGAAAGUCUGUAAUCAUUUUAAGGGUA

Variants of: B1
Assay: self-cleavage, relative activity (ratio to wild type); higher = more cleavage; in vitro, sequencing; the parent is a self-cleaving ribozyme

Variant	self-cleavage
U37C U39C U72A A111G	0.02
U37C U43C A47G	1.68
U37C U43C A63G U122C A129G G136A	0.85
U37C U43C U49C A54G A91U	2.01
U37C U49C A54G A82G U97C	0.47
U37C U49C A60G	1.43
U37C U49C A111G	0.03
U37C U49C U70C A78U	0.23
U37C U49C U130C	0.63
U37C U57A A60U	0.57
U37C U57C A59G A92U U132C	1
U37C U57C U70G A89G U131C	0.58
U37C U57C U72A	0.24
U37C U70C A94G	0.74
U37C U72A A134G	0.26
U37C U72A U87C A89G A91G A92G	0.05
U37C U72C A91G U130C	0.06
U37C U87C A135G	1.33
U37C U87G A98U	0.92
U37C U102C U133C	1.86
U37C U120C U122A U127C	0.33

Variant	self-cleavage
U37C U132C A140U	2.27
U37G A91G A98U	1.23
U37G C107U U108A U127C	0
U37G U57C U102C	2.29
U37G U87C A98C A129G	1.14
U38A A47G U130C	0.48
U38A A51G U70C U72C A129C	0.08
U38A A54G G79A U100A C105U U131C	0.01
U38A A54U G74A A86G U102A	0.11
U38A A56G U132G	2.31
U38A A59C A62G A118G U132C	1.08
U38A A60C A82G A118G U131C	0.27
U38A A60G U70C C112U	0.01
U38A A64G A66G	1.09
U38A A67G U100G G106A A125G	0
U38A A82G U127C	0.35
U38A A89G A91G U100C	2.55
U38A A91U A96U U100C A111G A126G U132C	0
U38A A111G A116G	0.06
U38A C40G A63G G75A A90C	0.1
U38A C42U U87C A114G A117G	0.35

Variant	self-cleavage
U38A G44A A114G	0.69
U38A G74C U131C	0.14
U38A U39A A69G C76U A117G	0.07
U38A U43A A69G U70C	0.14
U38A U57C A86G U133G	1.06
U38A U72C A118G	0.21
U38A U87A U103C	1.05
U38A U100C A114G	1.93
U38A U120C U124C U131A	0.42
U38C A47G A54G A66G U70C U87A A96G	0.83
U38C A47G A91G A96G	0.84
U38C A47G A95G U127C	0.94
U38C A47G U70A A117G	0.74
U38C A47U A55G U120C	0.44
U38C A47U G50A U72C	0.2
U38C A47U G84A U103C	1.1
U38C A47U U132C	1.14
U38C A51G A59G U100A U131C G136U	0.31
U38C A51G U122C	1.51
U38C A52G A64G U127C	1.15
U38C A52G A98G U103C U132A	0.15

Variant	self-cleavage
U38C A54G A82G U102C A126G	0.22
U38C A54G A89G A114G	1.31
U38C A54G A110U A118G	0.96
U38C A54G A117U	1.25
U38C A55C A111U G136A	0.11
U38C A55G A56G A66G U87A A95G U120C	1.16
U38C A55G A63G U72A	0.37
U38C A55G A63G U124C	1.04
U38C A55G A67G	0.73
U38C A55G A68G G119U	1.71
U38C A55G U102A	0.38
U38C A56G A60G A68U U97C	1.11
U38C A56G A62U A78G U103C	0.06
U38C A56G A64G A67G A118G U127C	0.35
U38C A59G A86G	1.61
U38C A59G A110G	0.24
U38C A59G G74A	0.35
U38C A59G U70G	0.9
U38C A59G U103A C109A	0.14
U38C A59G U108C	0.04
U38C A59G U122C	1.86
